{"source": "PubChem BioAssay AID1460", "about": "(National Center for Advancing Translational Sciences (NCATS), 2008)", "note": "About 5,800 (2.1%) of roughly 270,000 compounds were called active. This list was built around the results that the source calls inconclusive (neither active nor inactive); the mix of calls is not that of the screen. The call rests on the fitted dose curve; in most records, active means well fitted inhibition curve with a large enough effect; inconclusive means small, poorly fitted or top-dose-only effect; inactive means flat fitted curve, though single readings scatter. Potencies of inconclusive entries are doubtful fits and often do not repeat. On the % scale 0 is the no-effect control and ±100 the full control effect; potency means the concentration at half of the fitted maximal effect; tags describe the fitted curve by direction and shape.", "data": [{"target": "Microtubule-associated protein tau (Homo sapiens) (UniProt P10636)", "sequence (P10636 whole entry, looked up)": "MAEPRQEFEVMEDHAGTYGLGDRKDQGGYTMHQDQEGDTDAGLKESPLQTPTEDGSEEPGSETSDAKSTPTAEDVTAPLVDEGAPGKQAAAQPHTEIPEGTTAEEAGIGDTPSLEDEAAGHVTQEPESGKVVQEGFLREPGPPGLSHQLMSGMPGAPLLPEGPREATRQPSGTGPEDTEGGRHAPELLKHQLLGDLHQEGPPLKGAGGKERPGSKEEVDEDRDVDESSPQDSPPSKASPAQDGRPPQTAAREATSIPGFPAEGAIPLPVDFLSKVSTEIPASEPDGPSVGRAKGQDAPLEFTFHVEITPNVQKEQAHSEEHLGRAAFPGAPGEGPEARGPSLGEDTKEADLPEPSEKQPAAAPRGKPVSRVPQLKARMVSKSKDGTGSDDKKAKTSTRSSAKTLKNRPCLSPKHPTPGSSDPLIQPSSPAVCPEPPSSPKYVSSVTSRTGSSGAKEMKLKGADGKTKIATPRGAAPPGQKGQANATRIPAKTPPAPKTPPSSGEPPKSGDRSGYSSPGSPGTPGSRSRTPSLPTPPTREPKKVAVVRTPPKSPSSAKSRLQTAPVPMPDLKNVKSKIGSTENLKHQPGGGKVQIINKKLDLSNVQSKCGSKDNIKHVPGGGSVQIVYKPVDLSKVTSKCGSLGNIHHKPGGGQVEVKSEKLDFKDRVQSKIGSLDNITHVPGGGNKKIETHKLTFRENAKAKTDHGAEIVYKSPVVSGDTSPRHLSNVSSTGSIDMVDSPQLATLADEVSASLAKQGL", "experiment": "qHTS for Inhibitors of Tau Fibril Formation, Thioflavin T Binding; further: nearly all actives have a fitted effect of over 55% in size", "conditions": "recombinant tau K18 P301L, heparin-induced fibrillization, ThT fluorescence; series mostly up to 57.4 µM; activity, negative = inhibition: at the top concentration", "method_in_brief": "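Fibril formation assay: tau K18 P301L at 15 uM with trace Alexa 594 label, heparin inducer 20 uM, pH 7 sodium acetate buffer, 37 C for 6 hr; endpoint ThT signal.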", "values": [{"smiles": "CC(C)NC(=O)c1ccc2c3n(nc2c1)-c1ccc(Cl)cc1CO3", "Potency": "inconclusive: 7.08 µM [inhibitor, partial curve]"}, {"smiles": "O=C(NCc1nnc(SCc2ccccc2)n1-c1ccc(F)cc1)C12CC3CC(CC(C3)C1)C2", "Potency": "inconclusive: 39.8 µM [inhibitor, single point]"}, {"smiles": "CCOC(=O)c1cnc2ccccc2c1Nc1ccc(N2CCOCC2)cc1", "Potency": "inconclusive: 25.1 µM [inhibitor, partial curve]"}, {"smiles": "COc1ccc(CCNC(=S)Nc2ccc(OC)cc2)cc1", "activity, negative = inhibition": "inactive: -11.8%"}, {"smiles": "CCOC(=O)CCCN1CC(O)=C(c2nc3ccccc3s2)C1=N", "Potency": "inconclusive: 14.1 µM [inhibitor, partial curve, poor fit]"}, {"smiles": "CC(C)c1ccc(N=C2N=C(N)c3ccccc32)cc1", "Potency": "inconclusive: 15.8 µM [inhibitor, partial curve, poor fit]"}, {"smiles": "COc1ccccc1/C=C1\\SC(=S)N(C(C(=O)O)c2ccccc2)C1=O", "note": "(stereo not given)", "Potency": "inconclusive: 17.8 µM [inhibitor, partial curve]"}, {"smiles": "COc1ccccc1N(C(C)=O)C1SC(=O)N(c2ccccc2)C1=O", "note": "(stereo not given)", "Potency": "inconclusive: 20 µM [inhibitor, partial curve]"}, {"smiles": "Cc1cc(N(C)Cc2ccccc2)nc(-c2ccccc2)n1", "Potency": "inconclusive: 28.2 µM [inhibitor, partial curve]"}, {"smiles": "CNc1ccc(/C=C/C(=O)c2ccc(C)cc2)cc1[N+](=O)[O-]", "Potency": "active: 3.16 µM"}, {"smiles": "COc1ccc(NC(=S)NC(NC(=O)CCl)C(Cl)(Cl)Cl)c([N+](=O)[O-])c1", "note": "(stereo not given)", "Potency": "active: 15.8 µM"}, {"smiles": "CN(C)c1ccc(/C=N/N=C/c2ccccc2O)cc1", "Potency": "inconclusive: 2.82 µM [inhibitor, full curve]"}, {"smiles": "N#Cc1c(N(CCO)CCO)nc(N)c2c(N)nc3c(c12)CC(=O)N3Cc1cccs1", "Potency": "active: 15.8 µM"}, {"smiles": "CC(C)c1nc(SCC(=O)N2c3ccccc3CC2C)c2ccccc2n1", "note": "(stereo not given)", "Potency": "inconclusive: 22.4 µM [inhibitor, partial curve]"}, {"smiles": "Cc1cccc(CSc2nc3c(c(-c4cccs4)c2C#N)CN(C)CC3)c1", "Potency": "active: 15.8 µM"}, {"smiles": "O=C(Nc1cccc(N=Cc2cc(Cl)cc(Br)c2O)c1)c1ccco1", "Potency": "active: 15.8 µM"}, {"smiles": "Cc1ccc(Nc2c(-c3ccccc3O)nc3cc(C)ccn23)cc1", "Potency": "inconclusive: 39.8 µM [inhibitor, single point]"}, {"smiles": "CCCOc1cccc(-c2nc3ccccc3c(=O)o2)c1", "Potency": "inconclusive: 39.8 µM [inhibitor, single point]"}, {"smiles": "O=C(Nc1ccccc1)C1=C[C@@H](C2CCCCC2)C[C@@H](OCc2ccc(CO)cc2)O1", "Potency": "inconclusive: 1.78 µM [inhibitor, single point]"}, {"smiles": "Cc1cc(C(=O)CSc2nc3ccccc3[nH]2)c(C)n1CC1CCCO1", "note": "(stereo not given)", "activity, negative = inhibition": "inactive: -22.2%"}, {"smiles": "COc1ccc(-c2ccc(SCC(=O)c3ccc(F)cc3)nn2)cc1OC", "Potency": "inconclusive: 7.94 µM [inhibitor, full curve]"}, {"smiles": "O=C(Oc1c(-c2ccccc2)c(=O)n2c3c(cccc13)CC2)c1ccc(F)cc1", "Potency": "inconclusive: 28.2 µM [inhibitor, partial curve]"}, {"smiles": "CCn1cc(C(=O)NCc2ccc(C)o2)c2cc(OC)c(OC)cc2c1=O", "Potency": "inconclusive: 35.5 µM [inhibitor, single point]"}, {"smiles": "CCOC(=O)CCCNc1ccc([N+](=O)[O-])cc1[N+](=O)[O-]", "Potency": "inconclusive: 17.8 µM [inhibitor, partial curve]"}, {"smiles": "COc1cc(C(=O)O/N=C2\\C=CC(=O)C(C)=C2)cc(OC)c1OC", "Potency": "inconclusive: 11.2 µM [inhibitor, partial curve]"}, {"smiles": "Cc1ccc2nc(N(CCCN(C)C)C(=O)CCc3ccccc3)sc2c1", "Potency": "inconclusive: 15.8 µM [inhibitor, partial curve]"}, {"smiles": "O=C(NNc1cccc(Cl)c1)c1cccnc1Oc1ccccc1", "activity, negative = inhibition": "inactive: -12.2%"}, {"smiles": "CCOC(=O)N1CCN(C(=O)CCCCCn2c(=S)[nH]c3cc4c(cc3c2=O)OCO4)CC1", "Potency": "inconclusive: 0.631 µM [inhibitor, full curve]"}, {"smiles": "O=C(COc1cccc2ccccc12)NNC(=O)Nc1ccccc1", "activity, negative = inhibition": "inactive: 2.54%"}, {"smiles": "CC(C)(C)n1nnnc1C(c1ccc(Cl)cc1)N1CCCc2ccccc21", "note": "(stereo not given)", "activity, negative = inhibition": "inactive: -0.935%"}, {"smiles": "CC(C)Cc1cc(C(=O)N2CCN(C(c3ccccc3)c3ccccc3)CC2)no1", "Potency": "inconclusive: 44.7 µM [inhibitor, single point]"}, {"smiles": "Cc1ccc2oc(Nc3nc(C)cc(C)n3)nc2c1", "Potency": "inconclusive: 14.1 µM [inhibitor, partial curve, poor fit]"}, {"smiles": "O=C(c1ccco1)N1CCN(C(=O)c2cc(-c3ccccn3)nc3ccccc23)CC1", "activity, negative = inhibition": "inactive: -1.71%"}, {"smiles": "COc1cc(/C=N/NC(=S)NC2CC3C=CC2C3)cc(OC)c1OC", "note": "(stereo not given)", "Potency": "inconclusive: 15.8 µM [inhibitor, partial curve, poor fit]"}, {"smiles": "Cc1cc(SCC(=O)N/N=C/c2ccc(O)cc2O)c(C)cc1Br", "Potency": "inconclusive: 11.2 µM [inhibitor, partial curve]"}, {"smiles": "O=C(CSCC(=O)N1CCCCC1)OCC(=O)c1c[nH]c2ccccc12", "Potency": "inconclusive: 10 µM [inhibitor, partial curve]"}, {"smiles": "CC(C)(C)c1ccc(OCC(=O)NC(Cc2c[nH]c3ccccc23)C(=O)O)cc1", "note": "(stereo not given)", "activity, negative = inhibition": "inactive: -15.9%"}, {"smiles": "Cn1nnnc1SCC(=O)N1CCN(C(=O)c2ccco2)CC1", "activity, negative = inhibition": "inactive: -6.78%"}, {"smiles": "C/C(=N\\NC(=O)c1cccc(Cl)c1)c1cccc(NC(=O)c2ccco2)c1", "Potency": "inconclusive: 25.1 µM [inhibitor, partial curve]"}, {"smiles": "CNC(=O)c1c(NC(=O)c2ccc(S(=O)(=O)N3CCCC(C)C3)cc2)sc2c1CCC2", "note": "(stereo not given)", "Potency": "inconclusive: 14.1 µM [inhibitor, single point]"}, {"smiles": "Cc1c(C(=O)Oc2cc(N)n(S(C)(=O)=O)n2)cccc1[N+](=O)[O-]", "Potency": "inconclusive: 8.91 µM [inhibitor, full curve, poor fit]"}, {"smiles": "COC/C=C/C1=CC2=CC(=O)C(C)(OC(=O)c3cnc4ccccc4n3)C(=O)C2=CN1C1CCCC1", "note": "(stereo not given)", "Potency": "inconclusive: 7.94 µM [inhibitor, single point]"}, {"smiles": "COc1ccc([N+](=O)[O-])cc1NC(=O)c1ccc(CN(c2ccccc2)S(C)(=O)=O)cc1", "activity, negative = inhibition": "inactive: -7.27%"}, {"smiles": "CCN1CCN(c2ncnc3c2sc2nc(N4CCOCC4)c4c(c23)CCC4)CC1", "activity, negative = inhibition": "inactive: -2.83%"}, {"smiles": "Cc1[nH]nc2c1C(c1cn[nH]c1-c1ccc(F)cc1)C(C#N)=C(N)O2", "note": "(stereo not given)", "Potency": "inconclusive: 31.6 µM [inhibitor, partial curve]"}, {"smiles": "O=C(NCCc1ccccc1)c1cc2sccc2n1Cc1ccc(F)cc1", "activity, negative = inhibition": "inactive: -6.28%"}, {"smiles": "O=C(/C=C/c1ccco1)OCc1nnc(-c2ccccc2)o1", "activity, negative = inhibition": "inactive: -14%"}, {"smiles": "COC(=O)c1c(SCC(=O)Nc2cc(F)ccc2F)[nH]c2ccc(C)cc2c1=O", "Potency": "active: 7.08 µM"}, {"smiles": "O=C(CCN1CCOCC1)c1ccc2c(c1)OCCO2", "activity, negative = inhibition": "inactive: -16%"}, {"smiles": "COc1ccccc1Nc1nc(-c2sc(NC(=O)C(C)(C)C)nc2C)cs1", "Potency": "inconclusive: 12.6 µM [inhibitor, partial curve]"}, {"smiles": "COc1ccc(-c2cc(C(F)(F)F)nc(NCCc3ccccc3)n2)cc1", "Potency": "inconclusive: 8.91 µM [inhibitor, full curve, poor fit]"}, {"smiles": "COc1cc(NC(=O)c2ccc3c(c2)OCO3)ccc1NC(=O)c1cccs1", "Potency": "inconclusive: 3.98 µM [inhibitor, full curve]"}, {"smiles": "S=C(c1cn(Cc2ccccc2)c2ccccc12)N1CCOCC1", "activity, negative = inhibition": "inactive: 5.3%"}, {"smiles": "CCCC[C@@H]1C[C@H]1C(NC(=O)c1ccco1)c1ccc(Cl)cc1", "note": "(stereo not given in full)", "Potency": "inconclusive: 31.6 µM [inhibitor, single point]"}, {"smiles": "N#CCc1nn(-c2ccc(Cl)cc2)c(N)c1C#N", "Potency": "inconclusive: 15.8 µM [inhibitor, single point]"}, {"smiles": "CN(C)c1ccc(C(=O)OCc2ccccc2)cc1", "Potency": "inconclusive: 14.1 µM [inhibitor, partial curve, poor fit]"}, {"smiles": "CCOC(=O)c1[nH]c2cc3c(cc2c1NC(=O)CN1CCC(C)CC1)OCO3", "activity, negative = inhibition": "inactive: -20.4%"}, {"smiles": "O=C(COC(=O)CCc1nc2ccccc2c(=O)[nH]1)Nc1ccc(N2CCOCC2)cc1", "Potency": "inconclusive: 11.2 µM [inhibitor, partial curve]"}, {"smiles": "O=C(N/N=C/c1cc(Cl)cc([N+](=O)[O-])c1O)C1CC1", "Potency": "active: 15.8 µM"}, {"smiles": "COc1cccc(CN2CCNC(=O)C2CC(=O)NCCn2cccn2)c1OC", "note": "(stereo not given)", "activity, negative = inhibition": "inactive: -10.5%"}, {"smiles": "O=C(C1=C[C@@H](C2CCCCC2)C[C@@H](OCCCCO)O1)N1CCN(Cc2ccccc2)CC1", "Potency": "inconclusive: 25.1 µM [inhibitor, single point]"}, {"smiles": "Cc1ccc(NC(=O)C2CCCN(S(=O)(=O)c3ccc(F)cc3)C2)cc1", "note": "(stereo not given)", "activity, negative = inhibition": "inactive: -5.88%"}, {"smiles": "CCOC(=O)CN1C(C(=O)c2ccccc2)=C(OC(=O)c2ccccc2)c2ccccc2S1(=O)=O", "Potency": "inconclusive: 12.6 µM [inhibitor, partial curve]"}, {"smiles": "C=C1C(c2ccc(C)cc2)=CCc2cc(C)cc(C)c21", "Potency": "inconclusive: 14.1 µM [inhibitor, partial curve]"}, {"smiles": "COc1cc2c(cc1OC)C(C1C(=O)CCCC1=O)N(C(=O)CCl)CC2", "note": "(stereo not given)", "activity, negative = inhibition": "inactive: 0.699%"}, {"smiles": "O=C(OCc1nnc(-c2ccccc2)o1)c1ccc(Cl)cc1", "Potency": "inconclusive: 20 µM [inhibitor, partial curve]"}, {"smiles": "Cc1cc(C)cc(NC(=O)Nc2cccs2)c1", "Potency": "inconclusive: 31.6 µM [inhibitor, partial curve]"}, {"smiles": "Cc1ccc(S(=O)(=O)c2nc(Nc3nccs3)sc2Cl)cc1", "Potency": "inconclusive: 35.5 µM [inhibitor, partial curve]"}, {"smiles": "O=C(CCc1n[nH]c(=O)[nH]c1=O)N1CCCCC1", "activity, negative = inhibition": "inactive: -3.3%"}, {"smiles": "Cc1cc(C(=O)COc2cccc(-n3cnnn3)c2)c(C)n1-c1ccccc1", "activity, negative = inhibition": "inactive: -20.3%"}]}]}
